Source: the RNAGym collection of RNA variant scans (doi:10.1073/pnas.2313332121)
Variants at the floor of the assay are shown more often than the library holds them.

B1: TPR 5TU (parent)
chain: GGAUCUUCUCGAUCUAACAAAAAAGACAAAUCUGCCACAAAGCUUGAGAGCAUCUUCGGAUGCAGAGGCGGCAGCCUUCGGUGGCGCGAUAGCGCCAACGUUCUCAACUAUGACACGCAAAACGCGUGCUCCGUUGAAUGGAGUUUAUCAUG

Variants of: B1
Assay: polymerase ribozyme fitness, log enrichment relative to wild type (log ratio); higher = more active; in vitro selection for triplet polymerase activity
In short: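 For each subunit of a heterodimeric triplet polymerase ribozyme, a mutant library was built by PCR and transcribed, then taken through a single in vitro selection round in triplicate. Selection involved annealing to a biotinylated primer, the partner subunit and triplets, incubation frozen at −7 °C, gel excision of extended constructs, capture on streptavidin beads and RT-PCR. Genotypes were retained after Illumina sequencing of inputs and outputs only with ≥10 input reads and ≥1 read in each output. Fitness is defined as the logarithm of a genotype's enrichment relative to wild-type enrichment, using inverse-variance-weighted averages across replicates, with the logarithm taken to base 2.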

Polymerase ribozyme fitness (log ratio), ≤ -4.2:
GGAUCUUCACGAUCUAACAAAAAAGACAAAUCUGUCACAAAGCUUGAGAGCAUCUUCGGAUGCAGAGGCGGCAGCCUUCGGUGAAGCUAUAGCGCCAACGCUCUCAACUAUGACACGCAAAACGCGUGCUCCGUUGAAUGGAGUUAAUCAUG [U9A C35U G84A C85A G88U U101C U146A]
GGAUCUUCACGAUCUAACAAAAAAGACAAAUCUGCCACAAAGCUUGAGAGCAUGUUCGGAUGCAGUGGCGGCAGCCUUCGGUGGCGCGAUAGCGCCAAGGUUCUCAACUAUGACACGCAAAACGCGUGCUCCGUUGAAUGGUGUUUAUCAUG [U9A C54G A66U C99G A142U]
GGAUCUUCCCGAUCUAACAAACAAGACAAAUCUGCCACAAAGCUUGAGAGCAUUUUCGGAUGCAGAGGCGUCAGCCUUCGGUGACGCGAUAGCGACAUCGUUCUCAAAUAUGAUCCGCAAAACGCGUGCUCCGUUGAAUGGAGUUUAUCAUG [U9C A22C C54U G71U G84A C95A A98U C108A C114U A115C]
GGAUCUUCACGAUCUAACAAAAAAGACAAAUCUGCCACAAAGCUUGAGAGCAUCUUCGGAUGCAGAGGCGGCAGCCUUCGGUGGCGCAAUAGCGCCAACGUUCUCAACGAUGACACGCAAAACGUGUGCUCCGUUGAAUGGAGUUUAUCAUG [U9A G88A U109G C125U]
GGAUCUUCACGAUCUAACAAAAAACACAAAUCUGCCACAAAGCUUGAGAGCAUCUUCGGAUGCAGAGGCGGCAGCCUUCGGUGUCGCGAUAGCGCCAACGUUCUCAACUAUGACACGCAAAACGCGUGCUCCGUUGAAUGGAGUUUAUCAUG [U9A G25C G84U]
GGAUCUUCCCGAUCUAACAAGAAAGACAAAUCUGCCACAAACCUUGAGAGCAUCUUCAGAUGCAGAGGCGGCAGCCUGCGGUGGCGGGAUAGCGCCAACGUUCUCAACUAUGACACGCAAAACGCGUGCUCCGUUGAAUGGAGUUUAUCAUG [U9C A21G G42C G58A U78G C87G]
GGAUCUUCACGAUCUAACAAAAAAGACAAAUCUGCCACAAAGCUUGAGAGCAUCUUCGGAUGCAGAGGCGGCAGCCUUCGGUGGCCCGAUAGCGCCAACGUUCUGAACUAUGACACGCAAAACGCGUGCUCCGUUGAAUGGAGUUUAUCAUG [U9A G86C C105G]
GGAUCUUCCCGAUCUAACAAAAUGGACAAAUCUGCCAGAAAGCUUGAGAGCAUCUUCGGAUGCAGAGGCGGCAGCCUUCGGUGGCGCGGUUGCGCCAACGUUCUCAACUAUGACACGCAAAACGCGUGCUCCGUUGAAUGGAGUUUAUCAUG [U9C A23U A24G C38G A89G A91U]
GGAUCUUCCCGAUCUAACAAACAAGACAAAUCUGCCACAAAGCUUGAGAGCAUCUUCAGAGGCAGAGGCGGCAGCCUUCGGUAGCGCGAUAGCGCCAACGUUCUCAACUAUGACAGGCAAAACGCGUGCUCCGUUGAAUGGAGUUUAUCAUG [U9C A22C G58A U61G G83A C116G]
GGAUCUUCACGAUCUAACAAAAAAGACAAAUCUGCCACAAUGCUUGAGAGCAUCUUCGGAUGCAGAGGCGGCAACCUUCGGUGGCGCGGUAGCGCCAACGUUCUCAACUAUGACACGCAAAACGCGUGCUCUGUUGAAUGGAGUUUAUCAUG [U9A A41U G74A A89G C132U]
GGAUCUUCACGAUCUAACAAAAAAGACAAACCUGCCACAAAGCUUGAGAGCAUCUUCGGAUGCAGACGCGGCAGCCUUCGGUGGCGCGAUAGCGCCAACGUUCUCAACUAUGACACGCAAAACGCGUGCUCCGUUGAAUGGAGUUUAUCAUG [U9A U31C G67C]
GGAUCUUCCCGAUCUAACAAACAAGACAAAUCUGCCACAAAGCUUGAGAGCAUCUUCGGAUGCAGAGGCGGCAGCCUUCGGUGGCGCGAUAGCGCGAAGGUUCUCAACUAUGACACGCAAAACGCGUUCUCCGUUGAAUGGAGUUUAUCAUG [U9C A22C C96G C99G G128U]
GGAUCUUCCCGAUCUAACAAAAAAGACAUAUCUGCCACUAAGCUUGAGAACAUCUUCGGAUGCAGAGGCGGCAGCCUUCGGUGGCGCGAUAGCGCCAACGUUCUCAACUAUGACACGCCAAACGCGUGCUCCGUUGAAUGGAGUUUAUCAUG [U9C A29U A39U G50A A119C]
GGAUCUUCCCGGUCUAACAAAGAAGACAAAUCUGCCACAAAGCUUGAGCGCAUCUUCGGAUGCAGAGGCGGCAGCCUUCGGUGGCGUGAUAGCGCCAACGUUCUCAACUAUGACACGCAAAACGUGUGCUCCGUUGAAUGGAGUUUAUGAUG [U9C A12G A22G A49C C87U C125U C149G]
GGAUCUUCACAAUCUAACAAAAAAGUCAAAUCUGCCACAAAGCUUGAGAGCAUCUUCGGAUGCAGAGGCGGCAGCCUUCGGUGGCGCGAUAGCGCAAACGUUCCCAACUAUGACACGCAAAACGCGUGCUCCGUUGAAUGGAGUUUAUCAUG [U9A G11A A26U C96A U104C]
GGAUCUUCACGAUCUAACAAAAAAGACAAAUCUGCCACAAAGCUUGAGAGCAUCUUCGGAUGCAGAGGCGGCAGCCUUCGGUGGAGCGACAGCGCCAACGUUCACAACUAUGACACGCAAAACGCGGGCUCCGUUGAAUAGAGUUUAUCAUG [U9A C85A U90C U104A U127G G140A]
GGAUCUUCACGAUCUAACAAAAAAGACAAAUCUGCUACAAAGCUUGAGAGCAUCUUCGGAUGUAGAGGCGGCAGCCUUCGGUGGCGCGAUAGGGCCAACGUUCUCAACUAUGACACGCAAAACGCGUGCUCCGUUGAAUGGAGUUUAUCAUG [U9A C36U C63U C93G]
GGAUCUUCACGAUCUAACAAAAAAGACAAAUCUGCCACAAUGCUUGAGAGCCUCUUCGGAUUCAGAGGCGGCAGCCUUCGGUGGCGGGGUAGCGUCAACGUUCUCAACUAUGACAAGCAAAACGCGUGCUCCGUUGAAUGGCGUUAAUCCUG [U9A A41U A52C G62U C87G A89G C95U C116A A142C U146A A150C]
GGAUCUUCACGAUCUAACAAAAAAGACAAAUCUGCCACAAAGAUUGAGAGCAUCUUCGGAUGCAGAGGCGGCAGCCUUCGGUGGCGCGAUAGCGCCAACGUUCUCAACUAUGACACGCAAAACGCGUGCUCCGUUGAAUGGAGUUUUUCAGG [U9A C43A A147U U151G]
